# Assay results taken from PubChem BioAssay (Tox21).
# Where “and” joins values, the source holds several entries; their conditions need not be identical. Equal entries are not always repeated. Inconclusive results, whose numbers are uncertain, are shown with a selection of clear calls. For part of these data: Potencies of inconclusive entries are doubtful fits and often do not repeat. Calls of active or inactive are those of the source. Unless noted, the call rests on the fitted dose curve; in most records, active means well fitted curve in the direction sought with a large enough effect in the repeat runs; inconclusive means weak or mixed curves; inactive means no such curve, though single readings can be large; an effect the other way counts as inactive or inconclusive.
# Experiments:
# [1] = target: Progesterone receptor (Homo sapiens) (UniProt P06401); test: qHTS assay to identify small molecule antagonists of the progesterone receptor (PR) signaling pathway (AID 1346795; active means well fitted inhibition curve with a large enough effect in the signal ratio in the repeat runs, not every such curve was filed as active; inconclusive means weak or mixed curves; the % refers to the signal ratio; further: potency means the concentration at half of the fitted maximal effect; on activity change, negative = inhibition: on the % scale 0 is the no-effect control and ±100 the full control effect); details: PR-UAS-bla HEK293T, beta-lactamase FRET ratio, 16 h; activity change, negative = inhibition: at 92.4 µM (top of the series) unless noted
# Procedure, shortened: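 Antagonist mode with agonist R5020 at 1 nM final and 16 hr incubation at 37C. Reporter was beta-lactamase driven by UAS in HEK293T (PR-UAS-bla), 2% charcoal-stripped serum; signal from LiveBLAzer FRET substrate, 2 hr at room temperature.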
# [2] = qHTS assay to identify small molecule antagonists of the progesterone receptor (PR) signaling pathway - cell viability counter screen (AID 1346798); further: potency means the concentration at half of the fitted maximal effect; nearly all actives have a fitted effect of over 50% in size
# Procedure, shortened: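 Cytotoxicity read as CellTiter-Glo luminescence (30 min, room temperature) in the same wells as the beta-lactamase readout. HEK293T PR-UAS-bla cells in charcoal-stripped 2% FBS received compound and R5020, then 16 h at 37C, 5% CO2.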
# [3] = qHTS assay to identify small molecule agonists of the progesterone receptor (PR) signaling pathway - cell viability counter screen (AID 1346799; calls by dose curve; further: nearly all actives have a fitted effect of over 45% in size; further: potency means the concentration at half of the fitted maximal effect; on activity change, negative = cytotoxicity: on the % scale 0 is the no-effect control and ±100 the full control effect)
# Procedure, shortened: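 Cytotoxicity measured by CellTiter-Glo luminescence (30 min, RT) in the same wells as the PR beta-lactamase agonist read. Those HEK293T cells had 16 h compound treatment at 37 C in 2% charcoal-stripped FBS medium.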
# [4] = Caspase-3/7 induction in HepG2 cells by small molecules, qHTS assay (AID 1346978); further: potency means the concentration at half of the fitted maximal effect; nearly all actives have a fitted effect of over 15% in size
# Procedure, shortened: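 Wild-type HepG2 cells (2,000/well) were settled 5 h at 37 C, 5% CO2, then exposed to compounds in DMSO for 17 h. Caspase-3/7 activity was read by luminescence 30 min after adding Caspase-Glo 3/7 reagent at room temperature.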
# [5] = Caspase-3/7 induction in CHO-K1 cells by small molecules, qHTS assay (AID 1346980); further: nearly all actives have a fitted effect of over 15% in size; further: potency means the concentration at half of the fitted maximal effect
# Procedure, shortened: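 Wild-type cells were seeded at 1,500 per well and settled 5 hr at 37 C, 5% CO2, then exposed to DMSO-dissolved compounds for 17 hr. Caspase-Glo 3/7 reagent was added, and luminescence was read after 30min at room temperature.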
# [6] = Caspase-3/7 induction in HepG2 cells by small molecules, qHTS cell viability counter screen (AID 1346981); further: nearly all actives have a fitted effect of over 30% in size; further: potency means the concentration at half of the fitted maximal effect; on activity change, negative = cytotoxicity: on the % scale 0 is the no-effect control and ±100 the full control effect
# Procedure, shortened: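 In this quantitative HTS counter screen, compounds delivered in DMSO were left on unmodified HepG2 cells for 16 hr at 37 C. Viability was then determined fluorometrically with CellTiter-Fluor, in parallel with caspase-3/7 induction in the same wells.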
# [7] = target: Cytochrome P450 2D6 (Homo sapiens) (UniProt P10635); test: Cytochrome P450 Family 2 Subfamily D Member 6 (CYP2D6) small molecule antagonists: luciferase reporter qHTS assay (AID 1671196); further: potency means the concentration at half of the fitted maximal effect; nearly all actives have a fitted effect of over 50% in size
# Procedure, shortened: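 Test chemicals meet CYP2D6 plus proluciferin substrate (10 min, RT); NADPH regenerating solution then drives turnover for 1 h. Detection reagent halts the reaction; luminescence measured after 20 min.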
# [8] = Human pregnane X receptor (PXR) small molecule agonists, qHTS cell viability counter screen (AID 1346977); further: potency means the concentration at half of the fitted maximal effect; nearly all actives have a fitted effect of over 50% in size
# Procedure, shortened: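 Same-well viability read: CellTiter-Fluor added after 23 hr compound exposure, fluorescence measured 1 hr later. Cells were PXR-Luc HepG2 seeded at 2,000/well in 5% charcoal-stripped FBS medium, rested 5 hr before dosing at 37 C.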
# [9] = qHTS assay to identify small molecule antagonists of the TGF-beta/Smad signaling pathway (AID 1346924; active means well fitted inhibition curve with a large enough effect in the signal ratio in the repeat runs, not every such curve was filed as active; inconclusive means weak or mixed curves; the % refers to the signal ratio); details: SBE-bla HEK293T, TGF-beta/Smad reporter, beta-lactamase ratio; activity, negative = inhibition: at 76.8 µM (top of the series) unless noted
# Procedure, shortened: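 Read-out was FRET-substrate fluorescence (405 nm excitation; 460 and 530 nm emission) after 2 h at room temperature. Before that, cells carrying a Smad-binding-element beta-lactamase reporter in HEK 293T had been stimulated 5 h at 37 C with TGF-beta1 (0.25 ng/mL addition solution) in the presence of test compound.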
# [10] = target: Cytochrome P450 2C9 (Homo sapiens) (UniProt P11712); test: Cytochrome P450 Family 2 Subfamily C Member 9 (CYP2C9) small molecule antagonists: luciferase reporter qHTS assay (AID 1671198); further: nearly all actives have a fitted effect of over 50% in size; further: potency means the concentration at half of the fitted maximal effect; on activity change, negative = inhibition: on the % scale 0 is the no-effect control and ±100 the full control effect
# Procedure, shortened: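 CYP2C9 activity was measured with a P450-Glo proluciferin substrate. Enzyme–substrate mix was held with compound for 10 min at room temperature, then NADPH regeneration solution was added for 1 h at 37C. Luciferin product was read as luminescence.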
# [11] = Caspase-3/7 induction in CHO-K1 cells by small molecules, qHTS cell viability counter screen (AID 1346979); details: CellTiter-Fluor fluorescence, 17 h; activity change, negative = cytotoxicity: at 92.4 µM (top of the series); further: potency means the concentration at half of the fitted maximal effect; nearly all actives have a fitted effect of over 35% in size
# Procedure, shortened: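 Cytotoxicity counter screen: CellTiter-Fluor added to compound-treated wild-type CHO-K1 cells at 16 h (37C, 5% CO2), fluorescence measured 1 h later; same wells as caspase-3/7 measurement.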
# [12] = target: Cytochrome P450 2C19 (Homo sapiens) (UniProt P33261); test: Cytochrome P450 Family 2 Subfamily C Member 19 (CYP2C19) small molecule antagonists: luciferase reporter qHTS assay (AID 1671197); further: potency means the concentration at half of the fitted maximal effect; nearly all actives have a fitted effect of over 65% in size
# Procedure, shortened: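 Luminescent readout of CYP2C19 activity: luciferin product detected 20 min after adding detection reagent. Before that, compound and enzyme-substrate mix preincubated 10 min at room temperature; NADPH-regenerating system started a 1 h, 37C reaction. Ketoconazole as positive control.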
# [13] = target: Nuclear receptor subfamily 1 group I member 2 (Homo sapiens) (UniProt O75469); test: Human pregnane X receptor (PXR) small molecule agonists, qHTS assay (AID 1346982); further: potency means the concentration at half of the fitted maximal effect; nearly all actives have a fitted effect of over 35% in size
# Procedure, shortened: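 Reporter HepG2 cells expressing PXR-Luc are cultured in charcoal-stripped FBS (5%), treated with compounds for 24 hr at 37 C, and assayed by ONE-Glo luminescence after 30 min at room temperature.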
# [14] = target: Nuclear receptor subfamily 1 group I member 2 (Homo sapiens) (UniProt O75469); test: CYP3A4 induction through human pregnane X receptor (PXR) by small molecules, qHTS assay (AID 1346984); further: potency means the concentration at half of the fitted maximal effect; nearly all actives have a fitted effect of over 40% in size
# Procedure, shortened: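 Induction measured in HepG2-based DPX-2 cells co-expressing human PXR and a CYP3A4 promoter-driven luciferase. After a 24-hour compound exposure, cells received CYP3A4 luciferin substrate at 3uM final for 3 hours, and light output was then recorded.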
# [15] = target: Nuclear receptor subfamily 1 group I member 2 (Homo sapiens) (UniProt O75469); test: Human pregnane X receptor (PXR) activation by small molecules, qHTS assay (AID 1346985); further: potency means the concentration at half of the fitted maximal effect; nearly all actives have a fitted effect of over 40% in size
# Procedure, shortened: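 DPX-2 cells (HepG2 co-transfected with a PXR response element and a CYP3A4-promoter luciferase construct) were seeded at 2,000 per well, rested 5 hr at 37C, then exposed to DMSO-dissolved compounds for 24 hr. Activation was read as luciferase luminescence.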
# Tags describe the fitted curve by direction and shape.
# Chain of UniProt P06401 (P06401 whole entry, looked up): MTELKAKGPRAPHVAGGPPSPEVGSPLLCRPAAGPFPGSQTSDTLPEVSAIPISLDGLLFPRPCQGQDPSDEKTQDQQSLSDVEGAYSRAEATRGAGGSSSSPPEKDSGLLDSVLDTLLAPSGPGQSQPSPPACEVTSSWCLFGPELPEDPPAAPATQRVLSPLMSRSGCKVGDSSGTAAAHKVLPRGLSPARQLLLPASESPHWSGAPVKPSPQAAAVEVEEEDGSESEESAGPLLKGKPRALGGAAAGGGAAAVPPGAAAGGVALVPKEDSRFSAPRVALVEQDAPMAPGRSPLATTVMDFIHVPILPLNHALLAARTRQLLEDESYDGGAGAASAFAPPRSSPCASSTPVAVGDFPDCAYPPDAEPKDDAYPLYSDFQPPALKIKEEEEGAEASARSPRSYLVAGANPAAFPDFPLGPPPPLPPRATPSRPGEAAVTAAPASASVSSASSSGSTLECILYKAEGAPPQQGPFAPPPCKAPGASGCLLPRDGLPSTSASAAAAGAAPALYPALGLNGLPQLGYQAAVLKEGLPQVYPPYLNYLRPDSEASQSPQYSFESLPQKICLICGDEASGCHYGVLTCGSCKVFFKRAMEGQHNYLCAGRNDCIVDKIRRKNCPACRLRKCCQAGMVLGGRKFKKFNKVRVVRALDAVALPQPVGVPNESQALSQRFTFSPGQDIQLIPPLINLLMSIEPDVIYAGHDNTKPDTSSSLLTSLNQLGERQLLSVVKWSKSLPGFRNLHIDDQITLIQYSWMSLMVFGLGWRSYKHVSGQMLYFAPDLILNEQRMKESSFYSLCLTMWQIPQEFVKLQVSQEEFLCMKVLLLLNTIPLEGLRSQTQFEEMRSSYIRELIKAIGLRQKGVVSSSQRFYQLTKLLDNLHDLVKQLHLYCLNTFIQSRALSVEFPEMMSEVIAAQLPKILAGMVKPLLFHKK
# Chain of UniProt P10635 (P10635 whole entry, looked up): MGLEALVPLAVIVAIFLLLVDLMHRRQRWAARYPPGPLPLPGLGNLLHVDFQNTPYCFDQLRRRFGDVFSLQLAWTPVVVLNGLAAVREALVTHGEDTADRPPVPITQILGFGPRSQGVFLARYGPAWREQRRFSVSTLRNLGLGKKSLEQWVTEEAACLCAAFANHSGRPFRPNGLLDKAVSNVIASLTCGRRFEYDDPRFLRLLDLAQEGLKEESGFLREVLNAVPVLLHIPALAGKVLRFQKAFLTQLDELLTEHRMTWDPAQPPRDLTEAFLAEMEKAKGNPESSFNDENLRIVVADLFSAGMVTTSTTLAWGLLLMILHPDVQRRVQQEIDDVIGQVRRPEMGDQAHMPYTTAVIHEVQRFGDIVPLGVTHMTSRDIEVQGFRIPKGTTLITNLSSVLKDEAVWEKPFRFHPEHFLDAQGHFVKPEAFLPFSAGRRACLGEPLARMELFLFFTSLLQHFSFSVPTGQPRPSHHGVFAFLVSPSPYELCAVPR
# Chain of UniProt P11712 (P11712 whole entry, looked up): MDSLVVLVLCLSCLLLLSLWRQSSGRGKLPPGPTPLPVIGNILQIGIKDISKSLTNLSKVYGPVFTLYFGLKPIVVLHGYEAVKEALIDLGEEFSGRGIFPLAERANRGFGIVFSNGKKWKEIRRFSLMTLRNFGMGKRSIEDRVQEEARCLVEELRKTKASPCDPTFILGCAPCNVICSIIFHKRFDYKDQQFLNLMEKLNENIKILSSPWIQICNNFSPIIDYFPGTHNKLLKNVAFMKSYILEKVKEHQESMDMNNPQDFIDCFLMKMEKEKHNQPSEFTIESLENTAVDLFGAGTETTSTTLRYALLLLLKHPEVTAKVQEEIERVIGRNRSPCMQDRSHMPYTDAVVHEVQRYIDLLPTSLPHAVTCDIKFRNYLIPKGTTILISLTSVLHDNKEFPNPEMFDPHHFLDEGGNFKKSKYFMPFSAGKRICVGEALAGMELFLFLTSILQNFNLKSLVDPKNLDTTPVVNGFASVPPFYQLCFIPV
# Chain of UniProt P33261 (P33261 whole entry, looked up): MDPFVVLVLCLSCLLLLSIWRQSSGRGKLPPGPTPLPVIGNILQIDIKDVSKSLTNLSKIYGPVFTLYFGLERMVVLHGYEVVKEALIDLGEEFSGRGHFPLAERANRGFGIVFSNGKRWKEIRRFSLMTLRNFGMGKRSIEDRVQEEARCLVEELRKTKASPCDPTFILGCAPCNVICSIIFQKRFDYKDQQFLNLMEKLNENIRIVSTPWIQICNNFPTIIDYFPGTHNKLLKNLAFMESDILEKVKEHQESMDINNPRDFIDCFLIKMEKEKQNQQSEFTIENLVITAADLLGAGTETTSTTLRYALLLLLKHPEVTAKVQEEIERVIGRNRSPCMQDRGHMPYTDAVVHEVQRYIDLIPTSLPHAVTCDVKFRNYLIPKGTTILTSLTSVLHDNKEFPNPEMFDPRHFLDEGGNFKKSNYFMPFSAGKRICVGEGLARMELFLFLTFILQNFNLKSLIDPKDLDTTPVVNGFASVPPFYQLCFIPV
smiles,measurement,setting,value
O=c1c(-c2ccccc2)c1-c1ccccc1,Potency,[1],"inconclusive: 33.5 µM [rising, single point]"
same,Potency,[2],"inconclusive: 33.5 µM [cytotoxic, single point]"
same,Potency,[3],inactive
same,Potency,[4],"inconclusive: 33.5 µM [activator, single point]"
same,Potency,[5],"inconclusive: 13.3 µM [activator, single point]"
same,Potency,[6],"inconclusive: 33.5 µM [cytotoxic, single point]"
same,Potency,[7],"inconclusive: 38.9 µM [inhibitor, partial curve, poor fit]"
CN(C)CC/C=C1\c2ccccc2COc2ccccc21,Potency,[1],inactive
same,Potency,[2],"inconclusive: 13.3 µM [cytotoxic, full curve]"
same,Potency,[3],"inconclusive: 13.3 µM [cytotoxic, partial curve]"
same,Potency,[8],"inconclusive: 33.5 µM [cytotoxic, partial curve, poor fit]"
CS(=O)(=O)Nc1ccc([N+](=O)[O-])cc1Oc1ccccc1,Potency,[1],"inconclusive: 68.6 µM [rising, single point]"
same,Potency,[2],"inconclusive: 11.9 µM [cytotoxic, partial curve]"
same,Potency,[3],"inconclusive: 24.3 µM [cytotoxic, single point]"
same,Potency,[8],"inconclusive: 61.1 µM [cytotoxic, partial curve] and inconclusive: 33.5 µM [cytotoxic, single point]"
O[C@@H](CNC[C@H](O)[C@H]1CCc2cc(F)ccc2O1)[C@@H]1CCc2cc(F)ccc2O1,Potency,[1],active: 26.6 µM
same,Potency,[2],active: 29.8 µM
same,Potency,[3],active: 29.8 µM
same,"activity, negative = inhibition",[9],inconclusive: -18.8% [at 35.3 µM]
same,Potency,[5],"inconclusive: 33.5 µM [activator, single point]"
same,Potency,[6],"inconclusive: 33.5 µM [cytotoxic, single point]"
same,Potency,[10],inactive
C/C=C\C/C=C/CCCCCCCCOC(C)=O,"activity change, negative = inhibition",[1],inconclusive: -26.7%
same,Potency,[2],"inconclusive: 13.7 µM [rising, full curve]"
same,Potency,[3],"inconclusive: 15.4 µM [cytotoxic, partial curve, poor fit]"
same,Potency,[11],"inconclusive: 68.6 µM [cytotoxic, single point]"
same,Potency,[7],active: 39.9 µM
NC(=O)N(O)[C@@H]1C=C[C@H](Oc2cccc(Oc3ccc(F)cc3)c2)C1,"activity change, negative = inhibition",[1],inconclusive: -49.4%
same,Potency,[2],"inconclusive: 61.1 µM [rising, partial curve]"
same,Potency,[3],"inconclusive: 54.5 µM [rising, partial curve]"
same,Potency,[8],"inconclusive: 61.1 µM [cytotoxic, single point]"
same,Potency,[7],active: 5.03 µM
c1csc(SSc2cccs2)c1,Potency,[1],active: 8.63 µM
same,Potency,[2],active: 9.69 µM
same,Potency,[3],active: 9.69 µM
same,"activity, negative = inhibition",[9],inconclusive: -2.25%
same,Potency,[8],active: 27.3 µM
same,Potency,[5],"inconclusive: 27.3 µM [activator, single point]"
same,Potency,[7],"inconclusive: 44.8 µM [inhibitor, partial curve, poor fit]"
same,Potency,[12],active: 5.03 µM
same,Potency,[10],active: 5.03 µM
O=S(=O)(O)c1ccc(O)c2ncccc12,"activity change, negative = inhibition",[1],inconclusive: -25%
same,Potency,[2],"inconclusive: 76.2 µM [rising, single point]"
same,Potency,[3],inactive
same,Potency,[11],"inconclusive: 24.1 µM [rising, partial curve]"
same,Potency,[6],inconclusive: 34 µM
same,Potency,[7],inconclusive: 88.5 µM [inhibitor]
CCCCCCCC(=O)Oc1c(Br)cc(C#N)cc1Br,"activity change, negative = inhibition",[1],inconclusive: -27%
same,Potency,[2],"inconclusive: 76.6 µM [rising, single point]"
same,Potency,[3],"inconclusive: 68.3 µM [rising, single point]"
same,Potency,[6],inconclusive: 76.6 µM [cytotoxic]
same,Potency,[7],"inconclusive: 79.4 µM [inhibitor, single point]"
COc1ccc([C@@H]2Sc3ccccc3N(CCN(C)C)C(=O)[C@@H]2OC(C)=O)cc1,Potency,[1],inactive
same,Potency,[2],active: 21.1 µM
same,Potency,[3],"inconclusive: 18.8 µM [cytotoxic, partial curve, poor fit]"
same,Potency,[6],inactive
same,Potency,[10],inactive
SCCc1cnccn1,Potency,[1],active: 43.3 µM
same,Potency,[2],active: 30.6 µM
same,Potency,[3],"inconclusive: 48.6 µM [cytotoxic, partial curve]"
same,Potency,[5],inactive
same,Potency,[10],"inconclusive: 35.6 µM [inhibitor, partial curve]"
Cc1onc(-c2ccccc2)c1-c1ccc(S(N)(=O)=O)cc1,"activity change, negative = inhibition",[1],inconclusive: -27.2% [at 42.5 µM]
same,Potency,[2],"inconclusive: 21.1 µM [rising, partial curve]"
same,Potency,[3],"inconclusive: 29.8 µM [rising, partial curve]"
same,Potency,[13],"inconclusive: 33.5 µM [activator, single point]"
same,Potency,[14],"inconclusive: 17.8 µM [activator, partial curve, poor fit]"
same,Potency,[15],"inconclusive: 15.8 µM [activator, partial curve, poor fit]"
same,Potency,[7],"inconclusive: 24.5 µM [inhibitor, partial curve]"
